Results from the RNAGym collection of RNA variant scans (doi:10.7554/elife.90254).
Read counts are not given, so values of variants with three or more changes are uncertain.

B1: OR4K15 (parent)
chain: GUUAACGGUCAUAGGCCAUGGAAACUAGGAGCACCAUUUCGCUGCCAGUGAAGAAAUGAACAAAGAAAAUCUGGGCCAGGCAGGCAUCAAAAGAAAUAGUCUUGCGCUCAACCAGAAAGUCUGUAAUCAUUUUAAGGGUA

Variants of: B1
Assay: self-cleavage, relative activity (ratio to wild type); higher = more cleavage; in vitro, sequencing; the parent is a self-cleaving ribozyme

Row | Variant | self-cleavage
1 | GCUAACGGUCAUAGGCCAUGGAAACUAGGAGCACCAUUUCGCUGCCAGUGAAGAAAUGAACAAAGUAAAUCUGGGCCAGGCAGGCAUCAAAAGAAAUGGUCUUGCGCUCAACCAGAAAGUCCGUAAUCAUUUUAAGGGUA | 0.25
2 | GCUAACGGUCAUAGGCCAUGGAAACUAGGAGCACCAUUUCGCCGCCAGUGAAGAAAUGAACAAAGAAAAUCUGGGCCAGGCAGGCAUCAAAAGAAAUAGUCUUGCGCCCAACCAGGAAGUCUGUAAUCAUUUUAAGGGUA | 0
3 | GUUAACGGUCAUAGGCCAUGGAAACUAUGAGCACCAUUUCGCUGCCAGUGAAGAAAUGGACAAAGAAAAUCUGGGCUAGGCAGGCAUCAGAAGAAAUAGUCUUGCGCUCAACCAGAAAGUCUGUAAUCAUUUUAAGGGUA | 0.81
4 | GUUAACGGUCAUAGGCCAUGGGAACUAGGAGCACCAUUUCGCUGCCAGUGAAGAAAUGAACAAAGAAAAUCUGGGCCAGGCAGGCAUCAGAGGAAAUGGUCUUGCGCUCAACCAGAAAGUCUGUAAUCAUUUUAAGGGUA | 0.69
5 | GUUAACGGUCCUAGGCCAUGGAAACUAGGAGCACCAUUUCGCUGCCAGUGAAGAAAUGAACAAAGAAGAUCUGGGCCAGGCAGGCAUCAAAAGAAAUAGUCAUGCGCUCAACCAGAAAGUCUGUAAUCAUUUUAAGGGUA | 0.76
6 | GUUAACGGUCAUAGGCCAUGGAAACUAGGAGCACCAUUACGCUGCCAGUGAAGAAAUGAACAAAGAAAAUCUGGGCCAGGCAGGCAUCUAAAGAAAUAGUCUUGCGCCCAACCAGAAAGUCUGUAAUCAUUUUAAGGGUA | 0.03
7 | GUUAACGGUCAUAGGCCAUGGGAACUAGGAGCACCAUUACGCUGCCAGUGAAGAAAUGAACAAAGAAAAUCUGGGCCAGGCAGGCAUCAAAAGAAAUAGUCUUGCGCUCAACCUGAAAGUCUGUAAUCAUUUUAAGGGUA | 0.09
8 | GUUAACGGUCAUAGGCCAUGGAGACUAGGAGCACCAUUUCGCUGCCAGUGAAGAAAUGAACAAAGAAAAUCUGGGCCAGGCAGGCAUCGGAAGAAAUAGUCUUGCGCUCAACCAGAAAGUCUGUAAUCAUUUUAAGGGUA | 1.13
9 | GUUAACGGUCAUAGGCCAUGGAAACUAGGGGCACCAUUUCGCUGCCAGUGAAGAAAUGAACAAAGAAAAUCUGGGCCAGGCAGGCAUCAUAAGAAAUAGUCUUGCGCUCAACCAGAAAGUCUGUAAUCAUCUUAAGGGUA | 1.45
10 | GUUAACAGUCAUAGGCCAUGGAAACUAGGAGCACCAUUUCGCUGCCAGUGAAGAAAUGAACAAAGAAAAUCUGGGCCAGGCAGGCAUCAUAAGAAAUAGUCUUGCGCUCAACCAGAAAGUCUGUAAUCACUUUAAGGGUA | 1.23
11 | GUUAACGGUCAUAGGCCAUGGAAACUAGGAGCACCAUUUCGCUGCCAGUGAAGAAAUGGACAAAGAAAAUCUGGGCCAGGCAGGCAUCAAAAGAAAUAGUCUUGCGCUCAACCAGAAAGUCUGUAACCAUUUCAAGGGUA | 0.72
12 | GUUAACGGUCAUAGGCCGUGGAAACUAGGAGCGCCAUUUCGCUGCCAGUGAAGAAAUGAACAAAGAAAAUCUGGGCCAGGCAGGCAUCAAAAGAAAUAGUCUUGCGCCCAACCAGAAAGUCUGUAAUCAUUUUAAGGGUA | 0.02
13 | GUUAACGGUCAUAGGCCAUGGAAACUAGGAGCACCAUUUCGCUGCCAGUGAAGAAAUGAACAAAGAAAAUCUGGGCCAGGCAGGCAUCAAAAGAAAUAGUCUUGCGCUCAGCCAGAAAGUCUGUAAUCACUUUUAGGGUA | 0.02
14 | GUUAACGGUCAUAGGCCAUGGAAACUAGGAGCACCAUUUCGCUGCCAGUGAAGAAAUGAACAAAGAAAAUCCGGGCCAGGCAGGCAUCAAAAGAAAUAGCCUUGCGCUCAGCCAGAAAGUCUGUAAUCAUUUUAAGGGUA | 0.02
15 | GUUAACGGUCAUAGGCCAUGGAAACUAGGAGCACCAUUUCGCUGCCAGUGGAGAAAUGAACGAAGAAAAUCUGGGCCAGGCAGGCGUCAAAAGAAAUAGUCUUGCGCUCAACCAGAAAGUCUGUAAUCUUUUUAAGGGUA | 0.53
16 | GUUAACGGUCAUAGGCCAUGGAAACUAGGAGCACCAUUUCGCUGCUAGUGAAGAAAUGAACAAAGAAAGUCUGGGCCAGGCAGGCAUCAAAAGAAAUAGUCUUGCGCUCAACCAGAAAGUCCGUAAUCAUUUUAAGGGUA | 1.37
17 | GUUAACGGUCAUAGGCCAUGGAAACUAGGAGCACCAUUUCGCUGCCAGUGAAGAAAUGAACAAAGGAAAUCUGGGCCAGGCAGGCUUCAAAAGAAAUAGUCUUGCGCUCAACCAGAAAGUCUGUAAUCAUCUUAAGGGUA | 0.75
18 | GUUAACGGUCAUAGGCCAUGGAAACUAGGAGCACCAUUUCGCUGCCAGUGAAGAAAUGAACGGAGAAAAUCUGGGCCAGGCUGGCAUCAAAAGAAAUAGUCUUGCGCUCAACCAGAAAGUCUGUAAUCAUUUUAAGGGUA | 0.35
19 | GUUAACGGUCAUAGGCCAUGGAAACUAGGAGCACCAUUUCGCUGCCAGUGAAGAAAUGAACUAAGAAAACCUGGGCCAGGCAGGCAUAAAGAGUAAUAGUCUUGCGCUCAACCAGAAAGUCUGUAAUCAUUUUAAGGGUA | 0.36
20 | GUUAACGGUCAUAGGCCAUGGAAACUAGGAGCUCCAUUUCGCUGCCAGAGAAGAAAUGAACAAAGAAAAUCUGGGCCAGGCAGGCAUCAAAAGAAAUAGUCAUGUGCUCAACCAGAUAGUCUGUAAUCAUUUUAAGGGUA | 0.01
21 | GUUAACGGUCAUAGGCCAUGGAAACUAGGAGCACCAUUUCGCUGCCAGUGAAGUAAUGAACAAAGAAAAUCUGGGCCAGGCAGGCAUCAAAAGAAAUAGUCUUGCGCUCUACCAGAAAGUCUGUAGUCAUUUUAAGGGUA | 0.79
